Molecular target: glucagon receptor
Assay: cell-based or functional assay

B1: Oxyntomodulin C24 PEG 20K (peptide)
peptide: not shown
modifications: PEG 20K on Cys 24
cAMP Induction, EC50 (luciferase reporter, HEK293): 0.97 nM
